Measurements: the supplement of paper PMC3334620
Over roughly 33,000 sequences, “E-score (-0.5 to 0.5)” has its median near -0.017; the highest 2% begin near 0.3. The list shows a part of the results.

Molecular target: T1, Sut1 (UniProt P53032)
T1 sequence: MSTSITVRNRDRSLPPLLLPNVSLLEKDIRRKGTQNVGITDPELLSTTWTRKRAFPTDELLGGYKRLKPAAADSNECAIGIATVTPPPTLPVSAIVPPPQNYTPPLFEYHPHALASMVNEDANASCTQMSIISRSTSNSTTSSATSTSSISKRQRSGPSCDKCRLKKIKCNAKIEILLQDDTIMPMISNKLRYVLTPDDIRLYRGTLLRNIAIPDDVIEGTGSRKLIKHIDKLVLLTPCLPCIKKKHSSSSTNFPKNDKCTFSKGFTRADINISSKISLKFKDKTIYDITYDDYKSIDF
Assay: PBM E-score (8-mer binding enrichment) (E-score (-0.5 to 0.5)); higher = stronger / more preferred TF binding; most listed sequences are background and not binding sites
Settings: protein concentration: 200 nM; construct: GST-full length
Method in brief: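 PURExpress in vitro transcription/translation supplied GST-tagged yeast transcription factors, either full-length or DNA-binding domain. Applied at about 100-200 nM to universal all-10-mer Agilent arrays double-stranded by primer extension, the bound protein was detected with fluorescent anti-GST. E-scores, modified Wilcoxon-Mann-Whitney statistics, were given by the Universal PBM Analysis Suite to ungapped eight-base words pooled with their reverse complements after masliner normalisation.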

Sequence | PBM E-score
ATGGTTTG | 0.0969
GAACACCC | -0.183
GCGACAGA | -0.286
CTACAAAA | 0.267
GCAGCTGA | -0.0863
AATCTTTG | 0.116
TTGTACAA | 0.182
AGGTAAAA | 0.061
GGGTGCCA | -0.215
TGCTCCCA | -0.0682
AGCCACCG | -0.122
CTAGGTCC | 0.193
AATCGGAG | 0.396
CTAGATAC | 0.0478
AAAACTAT | 0.231
CAAGACAA | -0.00391
AATTTATC | 0.258
AGTAAAGA | 0.193
ACCTGGAC | -0.199
CTCAGGTA | -0.179
ACGGCTCC | 0.0716
GAGGCCTC | -0.235
ACAACGAC | 0.116
ATTAATAC | 0.179
CCTAGGCA | -0.15

Sequence | PBM E-score
CAGTAAAC | 0.101
ATGTACTG | 0.0119
ACGTTAGC | -0.0242
TAAGGTGA | -0.0574
AAGTCCTG | -0.103
ACGCAGGC | -0.223
CGAAGTAG | 0.0818
CTTTACGA | 0.0369
CGGTACCA | -0.118
ATATTAAA | 0.37
CCTGAAGC | -0.263
TGTTAAAA | 0.218
AAAAAGGA | 0.204
GGTGAGCA | -0.156
CATAGCAA | 0.0177
CTCGTAAG | 0.115
GCATGTAC | -0.201
CGGCTGAG | -0.165
CTCCCGAG | -0.264
AGCTTATC | -0.00535
CGAGTGCA | -0.0162
CCTTACTC | 0.0971
AGGCGGAT | 0.0628
GCGGTGGA | -0.043
CACTTCTC | -0.0913

Sequence | PBM E-score
ATTGCGAC | 0.0862
GACTGCCC | -0.199
GATGGAGC | -0.232
AAGGCTAA | 0.0404
ATGAATCG | -0.0757
GAAAGCAC | -0.0213
GATTACGA | 0.184
AGCGGGAC | -0.151
ACACTTAG | -0.0396
GCAGTGGA | -0.0987
CCTGCAGA | -0.0521
GCGTCGTA | 0.109
CACAATGC | 0.0849
AACCGCCC | -0.241
ACATTCTG | -0.0619
CAAGAGTC | 0.00463
CCCAGATC | -0.244
GTTTGTAA | 0.154
CAGACAAA | 0.0809
CACTGGGG | -0.262
ATGGAAAC | 0.00872
GCATAACC | -0.1
ATACCCGG | -0.239
CCTAACTA | 0.132
CGCTCCCA | -0.0881

Sequence | PBM E-score
CTACACAA | 0.118
GGCACCCA | -0.214
CCTCCATA | -0.235
ATAGCCGG | 0.104
AAAGCGTT | 0.063
CCCGTAGG | -0.295
CGAGTTAG | 0.0357
GACAGGGA | -0.166
CAGGCGAA | -0.158
AGCGGGGG | -0.335
AATAGTAA | 0.19
ATGGCCCG | -0.169
AAGGCTCA | -0.0689
AAGTTGCC | 0.0144
GCTGACAC | -0.0384
ACATCATG | -0.119
AGGGGTCA | -0.198
CATTCGTA | 0.096
TACTCTAA | 0.0967
AGAGCCCT | -0.131
TGACGGAA | 0.111
CCTGCAAG | -0.293
CGAAGACA | 0.00531
AGGCACTG | -0.0816
CCACTGGC | -0.158

Sequence | PBM E-score
GCAAATTA | 0.133
AACGCGCT | 0.0554
GCGATAAA | 0.0442
CGGCGAGC | -0.0558
ACTGGGAG | -0.227
GACTAGGA | -0.052
CGATCAAG | 0.0132
AGTTACTA | 0.0836
GAGCAACA | -0.0192
CTGGCCTA | -0.299
CACGGCTA | -0.123
AGGGCTAA | -0.0653
ACTAGCTA | 0.0184
ACGAGAGC | -0.103
GCGAGATA | 0.0704
AACTATCG | 0.00516
TCGGACCA | 0.201
CTATGACC | -0.0195
GCGCTTTA | -0.0225
CCTTTCGA | 0.00417
CGCTTCAA | 0.183
AGTTCTTC | 0.0133
ATCTTTTG | 0.0364
ACTACACG | -0.0104
ACATGCCG | -0.0326

Sequence | PBM E-score
TATGGGGA | 0.0437
AAGGACGT | -0.0097
ATCATAGA | 0.162
ATCGGTAC | 0.0811
TAGCGCTA | -0.13
CTGGCTTC | -0.15
ACGAAAAC | 0.133
CTATCGTC | -0.156
CAAAACTG | 0.0319
ATCCCAAC | -0.134
AAGCGGCT | 0.0849
AAAGTCGT | 0.131
ACAGGCGA | -0.077
CTAGTAAA | 0.204
ATTAAACG | 0.24
CGACTGCC | -0.217
GACCTTCA | -0.075
ACAGCTCG | -0.087
AGCAGCCG | -0.165
AGAATGCG | -0.0543
ATCTCGCA | 0.175
TCAGCCAA | -0.0208
AAGACTAA | 0.0716
GTTTAAAA | 0.19
AATGTGAG | 0.13

Sequence | PBM E-score
TGATGGAA | 0.0273
ATGTCACA | 0.0421
CGCGTCAC | -0.162
CTCTTGGC | -0.314
CCTTTGAC | -0.125
GAAGCTGC | -0.265
CCAACTTA | 0.155
GCCATTGA | 0.172
ATTTCAGG | 0.00587
AAGTGACC | -0.0256
ATGTTGGC | -0.0785
CGAAGGCA | -0.06
CGACAGCG | -0.0323
TACGAATA | 0.227
AGGCATTG | -0.0771
ACACCCAA | 0.103
AGTATCGA | 0.145
GGACACTA | -0.0784
CGCACTGA | -0.155
ACAGGACA | 0.0807
ACCCGCCG | 0.00658
GCTAAGGA | -0.171
AGACTAGC | -0.153
CTAGCGTA | -0.175
AAGTTGCT | 0.00535

Sequence | PBM E-score
ACTTTTGC | 0.102
ACCTGTTA | -0.0601
CTCACCGA | 0.0883
GTACCTAC | -0.299
GGTGTTCA | -0.12
AGGTGACC | -0.0761
CGAGCTGA | 0.00817
AGCAGCAT | 0.0143
TCCTGGAA | -0.281
GATGTATA | 0.0593
ACTACTCC | 0.226
CCCACACC | -0.276
CCAAGGGA | -0.31
ACCGACGC | -0.0813
CCGCGTAC | 0.0711
AACTTCTG | 0.0101
CCTTCACA | -0.0308
CACGGCGA | -0.0261
AATCGAGC | -0.105
ACACCAAG | -0.144
CTGACGGA | 0.0818
ATCTGCAC | -0.145
GCTGGATA | -0.158
CATGTAGA | -0.0225
GACTTTCC | 0.0329

Sequence | PBM E-score
AGACGATG | -0.00954
ATCCGACA | 0.0788
CGTGACAG | -0.102
CACCACAC | -0.103
CAACATTG | 0.111
CCGAAGCA | 0.0853
AGCGCGGG | -0.109
AACCGTCC | -0.109
ATTAAGAG | 0.115
ACCAGCCC | 0.052
GATGCCAC | -0.116
GGTGTATA | -0.24
ACCTTAAC | 0.0855
AGTTTCGC | -0.031
GCGGTGCC | -0.194
GATGCCTA | -0.136
CACTAGTA | 0.119
GACTTACA | 0.104
ACCTATAA | 0.0347
